Measurements as given in patent publication US10344037B2, “Use of the FL-one hundred eighteen core chemical structure platform to generate FL-one hundred eighteen derivatives for treatment of human disease” (priority 2014, dated 2019).

Key:
HCT116-C4 cells = type: cell-based, human
survivin = test: Western blot for survivin expression in FaDu cells; type: cell-based, human; conditions: 24 hours
[1] = system: Hdm2-mediated p53 ubiquitination; test: In vivo (in cell) p53 ubiquitination assay in HCT-8 cells; conditions: 10 and 100 nM FL118, MG132
SW620 tumor = test: Oral FL118 in SW620 xenograft
[2] = system: survivin, Mcl-1, XIAP, cIAP2; type: cell-based, human
[3] = system: p21, DHFR, HTR and TK gene promoters; test: Control gene promoter activity; type: cell-based, human; conditions: FL118 at 10 nM
[4] = system: HCT116 and HCT-8 colon cancer cells; test: Combination of FL118 with curcumin: cell death ELISA, MTT and combination index; type: cell-based, human; conditions: 48 hours
Description: Cell images are taken under microscopy with digital camera (A) or subject to cell death ELISA (DNA fragmentation) analysis (B). Each bar shown in B is the mean±SD from three independent assays.
Effects of Drug A and Drug B combination on growth inhibition are analyzed by the Combination Index (CI) equation developed by Chou-Talalay (Chou T C and Talalay P. Quantitative analysis of dose-effect relationships: the combined effects of multiple drugs or enzyme inhibitors. Adv Enzyme Regul 1984; 22: 27-55) using a CalcuSyn program (Biosoft, Cambridge, UK). […] The (Dx)1 and (Dx)2 can be readily calculated from the Meridian-effect equation of Chou (Chou T C. Preclinical versus clinical drug combination studies. Leuk Lymphoma 2008; 49: 2059-2080): Dx=Dm[fa/(1−fa)]^1/m where Dx is the median-effect dose, fa is the fraction affected, Dm is the median-effect dose signifying potency and m is the kinetic order signifying the shape of dose-effect curve. A 3-D plot of CI versus concentrations of both Drug A and Drug B is obtained for each treated cell line as descried before (Soriano A F, et al., Synergistic effects of new chemopreventive agents and conventional cytotoxic agents against human lung cancer cell lines. Cancer Res 1999; 59: 6178-6184).

RC1 (DU145-RC1) cells = test: Cell growth inhibition, DU145 sub-line with Top1 mutation; type: cell-based, human
From the text: (§1) Each dot is the mean±SD derived from 3 independent assays.
(§2) Irinotecan and topotecan are the only two analogs derived from direct modification of camptothecin (CPT) that are approved by the FDA for cancer treatment in clinical practice. […] In this regard, we obtain one DU145 parental prostate cancer cell line and two DU145-derived sub-lines with Top1 mutations (DU145-RC0.1, DU145-RC1).

[5] = system: RC0.1 (DU145-RC0.1) cells; test: as above; type: cell-based, human
From the text: as §1, §2

ABCG2 in HCT116-A2 cells = type: cell-based, human; conditions: 72 hours, Ko143 1 μM
Description: Cell numbers are then counted at each drug concentration used. […] Cell numbers at each dot is the mean±SD derived from 3 independent assays. Data are plotted graphically and EC50 values are calculated using GraphPad Prism 6.0.
ABCG2 positive HCT116-derived colon cancer cells (HCT116-A2) grown at sub-confluence are treated with a series of concentrations of topotecan in triplicate for 72 hours in the presence or absence of Ko143 at 1 μM concentrations as shown. Cell numbers are then counted at each topotecan concentration used. […] Cell numbers at each dot is the mean±SD derived from 3 independent assays. Data are plotted graphically and EC50 values and R-values are calculated using GraphPad Prism 6.0.
Clinically, development of resistance to irinotecan and topotecan occurs commonly during treatment, often involving the upregulation of ABCG2. By increasing the rate of drug export, ABCG2 decreases the amount of SN-38, irinotecan or topotecan that accumulates intracellularly, thereby protecting cancer cells from the cytotoxic effects of these chemotherapeutic drugs.

HCT-8 cells = test: Senescence-associated β-gal assay; type: cell-based, human; conditions: 10 nM FL118
From the text: The cells are stained for SA-b-gal activity. C.
Then the cells were fixed and stained for SA-β-gal activity with a commercial kit performed according to manufacturer's instructions (Calbiochem, catalog no QIA117).

CC[C@@]1(O)C(=O)OCc2c1cc1n(c2=O)Cc2cc3cc4c(cc3nc2-1)OCO4 [FL118]
IC50 (HCT116-C4 cells): 0.152 nM
RP (HCT116-C4 cells; IC50 of topotecan divided by IC50 of the drug): 564.1
survivin expression (survivin): inhibits survivin expression
p53 ubiquitination in cells [1]: inhibits Hdm2-mediated p53 ubiquitination in cells
lowest dose showing efficacy (SW620 tumor; q7d×4): ≤ 0.625 mg/kg
SW620 tumor growth (SW620 tumor; q7d×4, versus saline or vehicle control): significant inhibition of SW620 tumor growth
more effective than topotecan (irinotecan and topotecan) in inhibition of survivin, Mcl-1, XIAP, cIAP2 [2]: at least 10 time
promoter activity of p21, DHFR, HTR and TK genes [3]: no inhibitory effects
dependence of FL118-induced HdmX degradation on p53 or p21 (HdmX; HCT116-p21-null or HCT116-p53-null cells, 10 and 100 nM, 24 h): not affected by p53 or p21 status
dependence of FL118-induced HdmX degradation on ATM (HdmX; HCT-8 cells, 100 nM, with ATM inhibitor KU55933 10 μM): ATM-independent process
dependence of FL118-induced HdmX degradation on Hdm2 (HdmX; p53/mdm2/mdmx triple knockout (TKO) MEF cells transfected with HA-HdmX with or without Hdm2): presence of Hdm2 in HdmX-co-transfected cells is required
cancer cell death in combination with curcumin [4]: curcumin enhances FL118 anti-cancer efficacy to induce colon cancer cell death
IC50 (RC1 (DU145-RC1) cells): 102 nM
IC50 ([5]; RC0.1): 78.7 nM
more effective than CPT, SN-38 and topotecan ([5]; Top1 mutated RC0.1 and RC1 cell lines): up to 800 folds
effect of ABCG2 inhibitor Ko143 on potency (ABCG2 in HCT116-A2 cells): Ko143 does not modulate the potency of FL118
senescence (SA-β-gal positivity) (HCT-8 cells): induces p53-dependent senescence
